Results from paper PMC12408341.
Results are given in words; binding and its absence hold for the method and conditions named. In cells and extracts the contact can be indirect. Some entries that bind do so weakly or less than the wild type.

Amino acid sequences for entries named in this document (tags omitted). A change or cut given only in a name is not applied to a line headed by its entry. Residues count along the entry.
UniProt Q59MD2: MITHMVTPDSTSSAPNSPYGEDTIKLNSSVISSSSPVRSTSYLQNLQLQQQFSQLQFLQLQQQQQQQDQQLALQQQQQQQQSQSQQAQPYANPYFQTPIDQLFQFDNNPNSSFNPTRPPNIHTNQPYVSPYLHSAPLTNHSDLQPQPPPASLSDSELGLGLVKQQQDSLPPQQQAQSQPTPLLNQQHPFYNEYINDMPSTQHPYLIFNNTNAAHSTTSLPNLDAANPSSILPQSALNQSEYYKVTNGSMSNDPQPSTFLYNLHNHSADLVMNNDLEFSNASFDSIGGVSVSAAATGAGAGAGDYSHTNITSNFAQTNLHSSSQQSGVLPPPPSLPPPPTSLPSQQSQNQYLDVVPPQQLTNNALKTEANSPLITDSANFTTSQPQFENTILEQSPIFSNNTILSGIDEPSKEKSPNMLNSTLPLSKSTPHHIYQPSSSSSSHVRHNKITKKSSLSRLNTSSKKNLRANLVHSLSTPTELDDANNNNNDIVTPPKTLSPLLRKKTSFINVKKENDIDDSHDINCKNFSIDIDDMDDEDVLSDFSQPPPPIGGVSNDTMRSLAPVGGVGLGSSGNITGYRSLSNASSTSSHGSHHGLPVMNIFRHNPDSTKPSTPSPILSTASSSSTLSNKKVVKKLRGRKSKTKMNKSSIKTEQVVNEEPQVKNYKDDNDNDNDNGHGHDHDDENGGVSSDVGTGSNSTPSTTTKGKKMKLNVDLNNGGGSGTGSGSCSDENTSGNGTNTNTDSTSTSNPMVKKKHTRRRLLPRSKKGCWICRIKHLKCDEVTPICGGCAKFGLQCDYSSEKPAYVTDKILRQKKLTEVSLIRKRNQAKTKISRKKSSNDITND
Ume6^1–759-HA: residues 1-759 of Q59MD2
Ume6^1–720-HA: residues 1-720 of Q59MD2
Ume6^720–843-HA: residues 720-843 of Q59MD2
UniProt Q59QC7: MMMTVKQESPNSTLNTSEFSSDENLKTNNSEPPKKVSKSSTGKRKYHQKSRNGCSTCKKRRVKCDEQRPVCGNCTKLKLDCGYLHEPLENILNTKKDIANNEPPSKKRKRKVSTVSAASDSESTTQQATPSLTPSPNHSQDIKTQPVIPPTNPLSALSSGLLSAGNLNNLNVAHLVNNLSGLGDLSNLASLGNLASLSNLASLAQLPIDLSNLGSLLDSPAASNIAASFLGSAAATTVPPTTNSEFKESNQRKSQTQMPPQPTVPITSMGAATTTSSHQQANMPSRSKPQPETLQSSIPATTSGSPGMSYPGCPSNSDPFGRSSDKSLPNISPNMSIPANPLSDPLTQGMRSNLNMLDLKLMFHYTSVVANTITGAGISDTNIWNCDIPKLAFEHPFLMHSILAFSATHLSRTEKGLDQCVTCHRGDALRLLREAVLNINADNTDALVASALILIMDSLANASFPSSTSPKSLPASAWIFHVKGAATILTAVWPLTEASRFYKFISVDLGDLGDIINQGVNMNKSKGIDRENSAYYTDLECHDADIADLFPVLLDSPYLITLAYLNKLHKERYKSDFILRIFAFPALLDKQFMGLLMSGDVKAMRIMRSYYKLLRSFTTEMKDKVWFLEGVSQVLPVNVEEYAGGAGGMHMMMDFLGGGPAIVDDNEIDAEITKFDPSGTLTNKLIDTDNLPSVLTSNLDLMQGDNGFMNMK
UniProt Q5ACU9: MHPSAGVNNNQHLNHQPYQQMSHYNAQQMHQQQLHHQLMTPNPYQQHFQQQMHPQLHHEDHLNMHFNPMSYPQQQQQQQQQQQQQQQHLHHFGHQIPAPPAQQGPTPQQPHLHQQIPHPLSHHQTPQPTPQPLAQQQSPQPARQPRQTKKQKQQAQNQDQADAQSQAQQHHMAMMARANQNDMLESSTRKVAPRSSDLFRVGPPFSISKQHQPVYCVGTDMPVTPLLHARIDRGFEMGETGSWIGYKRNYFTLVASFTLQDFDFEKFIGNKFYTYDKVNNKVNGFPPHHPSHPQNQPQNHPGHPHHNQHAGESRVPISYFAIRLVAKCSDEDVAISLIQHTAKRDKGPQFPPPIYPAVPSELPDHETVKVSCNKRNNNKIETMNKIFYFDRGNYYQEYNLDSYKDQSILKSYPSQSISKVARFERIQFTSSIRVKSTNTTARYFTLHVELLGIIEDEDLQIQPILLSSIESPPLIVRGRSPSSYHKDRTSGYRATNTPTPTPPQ
UniProt Q59UY7: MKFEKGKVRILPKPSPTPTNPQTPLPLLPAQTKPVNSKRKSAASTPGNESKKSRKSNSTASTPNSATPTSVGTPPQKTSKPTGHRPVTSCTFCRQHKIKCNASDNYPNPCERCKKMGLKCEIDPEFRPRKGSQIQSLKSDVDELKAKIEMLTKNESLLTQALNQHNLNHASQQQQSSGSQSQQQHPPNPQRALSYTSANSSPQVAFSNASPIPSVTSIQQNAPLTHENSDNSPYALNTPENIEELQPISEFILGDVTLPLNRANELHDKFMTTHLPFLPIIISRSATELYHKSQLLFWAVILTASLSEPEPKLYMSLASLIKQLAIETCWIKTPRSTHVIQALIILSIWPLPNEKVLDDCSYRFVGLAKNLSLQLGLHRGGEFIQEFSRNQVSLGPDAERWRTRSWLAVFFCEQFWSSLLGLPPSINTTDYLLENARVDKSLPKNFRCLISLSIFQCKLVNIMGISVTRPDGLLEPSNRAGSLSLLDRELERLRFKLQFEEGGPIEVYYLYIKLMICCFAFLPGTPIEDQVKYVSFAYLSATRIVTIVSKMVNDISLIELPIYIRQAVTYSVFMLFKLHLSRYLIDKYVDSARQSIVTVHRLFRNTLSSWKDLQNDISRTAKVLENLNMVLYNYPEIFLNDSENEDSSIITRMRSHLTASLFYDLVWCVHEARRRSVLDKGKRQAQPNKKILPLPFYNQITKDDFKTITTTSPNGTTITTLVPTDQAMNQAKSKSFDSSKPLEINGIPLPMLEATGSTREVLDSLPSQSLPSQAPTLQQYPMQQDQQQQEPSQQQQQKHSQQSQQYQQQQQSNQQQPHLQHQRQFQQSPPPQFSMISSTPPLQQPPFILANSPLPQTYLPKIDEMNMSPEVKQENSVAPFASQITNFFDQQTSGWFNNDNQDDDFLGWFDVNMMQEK

Experiments:
Assay in all cases: co-IP
[1] = target: Ume6^1–759-HA (Candida albicans) (UniProt Q59MD2)
[2] = target: Ume6^720–843-HA (Candida albicans) (UniProt Q59MD2)
[3] = target: Ume6^1–720-HA (Candida albicans) (UniProt Q59MD2)
[4] = target: Ume6-HA (Candida albicans) (UniProt Q59MD2)

| Substance | binding [1] | binding [2] | binding [3] | binding [4] |
| --- | --- | --- | --- | --- |
| Upc2-FLAG (from UniProt Q59QC7 1-712) | no binding | binds | no binding | binds |
| Ndt80-FLAG (from UniProt Q5ACU9 1-504) | no binding | binds | no binding | binds |
| Sef1-FLAG (from UniProt Q59UY7 1-917) |  |  |  | no binding |
